# Measured values taken from the supplement of paper PMC8728848.
# Some of the results follow.
# Legend:
# Experiment in all cases: glycan array binding signal (z-score within array); higher = stronger binding
# Conditions in all cases: glycan notation: IUPAC condensed, linker removed
# [1] = target: Neu5Ac(a2-6)Gal(b1-4)GlcNAc(b1-2)[Neu5Ac(a2-6)Gal(b1-4)GlcNAc(b1-4)]Man(a1-3)[GlcNAc(b1-4)][Neu5Ac(a2-6)Gal(b1-4)GlcNAc(b1-4)Man(a1-6)]Man(b1-4)GlcNAc(b1-4)GlcNAc
# Summary of the method: (§1)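 The Consortium for Functional Glycomics database supplied 3228 glycan arrays, of which those lacking an available protein sequence were dropped. The binding signal, a within-array Z-score, was averaged across arrays of the same protein sequence and across linkers. Negative scores can be read as non-binding.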
# [2] = target: Neu5Ac(a2-6)Gal(b1-4)GlcNAc(b1-2)[Neu5Ac(a2-6)Gal(b1-4)GlcNAc(b1-6)]Man(a1-6)[Neu5Ac(a2-6)Gal(b1-4)GlcNAc(b1-2)Man(a1-3)][GlcNAc(b1-4)]Man(b1-4)GlcNAc(b1-4)GlcNAc
# Summary of the method: as §1
# [3] = target: Neu5Ac(a2-6)Gal(b1-4)GlcNAc(b1-3)Gal(b1-3)GlcNAc
# Summary of the method: as §1
# [4] = target: Neu5Ac(a2-6)Gal(b1-4)GlcNAc(b1-3)Gal(b1-4)GlcNAc
# Summary of the method: as §1
# [5] = target: Neu5Ac(a2-6)Gal(b1-4)GlcNAc(b1-3)Gal(b1-4)GlcNAc(b1-2)Man(a1-3)[Neu5Ac(a2-6)Gal(b1-4)GlcNAc(b1-3)Gal(b1-4)GlcNAc(b1-2)Man(a1-6)]GalNAc
# Summary of the method: as §1
# [6] = target: Neu5Ac(a2-6)Gal(b1-4)GlcNAc(b1-3)Gal(b1-4)GlcNAc(b1-3)Gal(b1-4)GlcNAc
# Summary of the method: as §1
# [7] = target: Neu5Ac(a2-6)Gal(b1-4)GlcNAc(b1-3)Gal(b1-4)GlcNAc(b1-3)Gal(b1-4)GlcNAc(b1-2)Man(a1-3)[Neu5Ac(a2-6)Gal(b1-4)GlcNAc(b1-3)Gal(b1-4)GlcNAc(b1-3)Gal(b1-4)GlcNAc(b1-2)Man(a1-6)]GalNAc
# Summary of the method: as §1
# [8] = target: Neu5Ac(a2-6)Gal(b1-4)GlcNAc(b1-3)Gal(b1-4)GlcNAc(b1-3)GalNAc
# Summary of the method: as §1
# [9] = target: Neu5Ac(a2-6)Gal(b1-4)GlcNAc(b1-3)Gal(b1-4)GlcNAc(b1-3)[Neu5Ac(a2-6)Gal(b1-4)GlcNAc(b1-3)Gal(b1-4)GlcNAc(b1-6)]GalNAc
# Summary of the method: as §1
# [10] = target: Neu5Ac(a2-6)Gal(b1-4)GlcNAc(b1-3)Gal(b1-4)GlcNAc(b1-6)[Gal(b1-3)]GalNAc
# Summary of the method: as §1
# [11] = target: Neu5Ac(a2-6)Gal(b1-4)GlcNAc(b1-3)Gal(b1-4)[Fuc(a1-3)]GlcNAc(b1-3)Gal(b1-4)[Fuc(a1-3)]GlcNAc
# Summary of the method: as §1
# [12] = target: Neu5Ac(a2-6)Gal(b1-4)GlcNAc(b1-3)GalNAc
# Summary of the method: as §1
# [13] = target: Neu5Ac(a2-6)Gal(b1-4)GlcNAc(b1-3)[Neu5Ac(a2-6)Gal(b1-4)GlcNAc(b1-6)]GalNAc
# Summary of the method: as §1
# [14] = target: Neu5Ac(a2-6)Gal(b1-4)GlcNAc(b1-6)GalNAc
# Summary of the method: as §1
# [15] = target: Neu5Ac(a2-6)Gal(b1-4)GlcNAc(b1-6)[Gal(b1-3)GlcNAc(b1-3)]Gal(b1-4)Glc
# Summary of the method: as §1
# [16] = target: Neu5Ac(a2-6)Gal(b1-4)GlcNAc(b1-6)[Gal(b1-3)]GalNAc
# Summary of the method: as §1
# [17] = target: Neu5Ac(a2-6)Gal(b1-4)GlcNAc6S
# Summary of the method: as §1
# [18] = target: Neu5Ac(a2-6)GalNAc
# Summary of the method: as §1
# [19] = target: Neu5Ac(a2-6)GalNAc(b1-4)GlcNAc
# Summary of the method: as §1
# [20] = target: Neu5Ac(a2-6)GalNAc(b1-4)GlcNAc6S
# Summary of the method: as §1
# [21] = target: Neu5Ac(a2-6)GlcNAc(b1-4)GlcNAc
# Summary of the method: as §1
# [22] = target: Neu5Ac(a2-6)GlcNAc(b1-4)GlcNAc(b1-4)GlcNAc
# Summary of the method: as §1
# [23] = target: Neu5Ac(a2-8)Neu5Ac
# Summary of the method: as §1
# [24] = target: Neu5Ac(a2-8)Neu5Ac(a2-3)Gal(b1-3)GalNAc(b1-4)[Neu5Ac(a2-3)]Gal(b1-4)Glc
# Summary of the method: as §1
# [25] = target: Neu5Ac(a2-8)Neu5Ac(a2-3)Gal(b1-3)GalNAc(b1-4)[Neu5Ac(a2-8)Neu5Ac(a2-3)]Gal(b1-4)Glc
# Summary of the method: as §1
# [26] = target: Neu5Ac(a2-8)Neu5Ac(a2-3)Gal(b1-4)Glc
# Summary of the method: as §1
# [27] = target: Neu5Ac(a2-8)Neu5Ac(a2-3)Gal(b1-4)GlcNAc
# Summary of the method: as §1
# [28] = target: Neu5Ac(a2-8)Neu5Ac(a2-3)[Gal(b1-3)GalNAc(b1-4)]Gal(b1-4)Glc
# Summary of the method: as §1
# [29] = target: Neu5Ac(a2-8)Neu5Ac(a2-3)[GalNAc(b1-4)]Gal(b1-4)Glc
# Summary of the method: as §1
# [30] = target: Neu5Ac(a2-8)Neu5Ac(a2-8)Neu5Ac
# Summary of the method: as §1
# [31] = target: Neu5Ac(a2-8)Neu5Ac(a2-8)Neu5Ac(a2-3)Gal(b1-4)Glc
# Summary of the method: as §1
# [32] = target: Neu5Ac(a2-8)Neu5Ac(a2-8)Neu5Ac(a2-3)[Gal(b1-3)GalNAc(b1-4)]Gal(b1-4)Glc
# Summary of the method: as §1
# [33] = target: Neu5Ac(a2-8)Neu5Ac(a2-8)Neu5Ac(a2-3)[GalNAc(b1-4)]Gal(b1-4)Glc
# Summary of the method: as §1
# [34] = target: Neu5Ac(a2-8)Neu5Ac(a2-8)Neu5Ac(a2-8)Neu5Ac(a2-3)[GalNAc(b1-4)]Gal(b1-4)Glc
# Summary of the method: as §1
# [35] = target: Neu5Ac(a2-8)Neu5Gc(a2-3)Gal(b1-4)GlcNAc
# Summary of the method: as §1
# [36] = target: Neu5Ac(b1-6)GalNAc
# Summary of the method: as §1
# [37] = target: Neu5Ac(b2-6)Gal(b1-4)GlcNAc
# Summary of the method: as §1
# [38] = target: Neu5Ac(b2-6)GalNAc
# Summary of the method: as §1
binder,measurement,setting,value
"CSA (Cytisus scoparius), P29257 (protein) SEELSFSFTKFKTDQKNLILQRDALITPTGKLQLTTVENGKPAAYSLGRALYSTPIHIWDKSTGDEASFATFFSFVISDAPNPSTAATDGLAFFLAPADTQPQSAGGYLGLFEKDSSYNSSNQIVAVEFDTYYNSAWDPQTNPHIGIDVNTIKSKKVSSWGFKNGNVATVLITYQPSSKSLVASLVYPSGQTSDKTSYIISANVDLKATVPEWVRIGFSATTGQTDNYIETHDILSWSFKSKLPATKN",glycan array binding signal (z-score),[1],-0.261
same,glycan array binding signal (z-score),[2],-0.195
same,glycan array binding signal (z-score),[3],-0.218
same,glycan array binding signal (z-score),[4],-0.189
same,glycan array binding signal (z-score),[5],-0.096
same,glycan array binding signal (z-score),[6],-0.181
same,glycan array binding signal (z-score),[7],0.296
same,glycan array binding signal (z-score),[8],-0.243
same,glycan array binding signal (z-score),[9],0.391
same,glycan array binding signal (z-score),[10],-0.036
same,glycan array binding signal (z-score),[11],-0.181
same,glycan array binding signal (z-score),[12],-0.174
same,glycan array binding signal (z-score),[13],-0.172
same,glycan array binding signal (z-score),[14],-0.202
same,glycan array binding signal (z-score),[15],-0.252
same,glycan array binding signal (z-score),[16],-0.04
same,glycan array binding signal (z-score),[17],-0.152
same,glycan array binding signal (z-score),[18],-0.203
same,glycan array binding signal (z-score),[19],-0.204
same,glycan array binding signal (z-score),[20],-0.196
same,glycan array binding signal (z-score),[21],-0.207
same,glycan array binding signal (z-score),[22],-0.199
same,glycan array binding signal (z-score),[23],-0.205
same,glycan array binding signal (z-score),[24],-0.254
same,glycan array binding signal (z-score),[25],-0.185
same,glycan array binding signal (z-score),[26],-0.234
same,glycan array binding signal (z-score),[27],-0.119
same,glycan array binding signal (z-score),[28],-0.169
same,glycan array binding signal (z-score),[29],0.646
same,glycan array binding signal (z-score),[30],-0.187
same,glycan array binding signal (z-score),[31],-0.196
same,glycan array binding signal (z-score),[32],-0.192
same,glycan array binding signal (z-score),[33],-0.061
same,glycan array binding signal (z-score),[34],-0.149
same,glycan array binding signal (z-score),[35],-0.203
same,glycan array binding signal (z-score),[36],-0.197
same,glycan array binding signal (z-score),[37],-0.155
same,glycan array binding signal (z-score),[38],-0.163
